Among all 340,000 compounds or so, about 6,900 (2%) were called active. No stated cut-off is given here; in the data, active means inhibition above about 30%; inactive means below that, where a call was filed. The list shows a part of the results, in another mix than the full data. Where no call is shown, the source filed none.
Target: D(2) dopamine receptor (Homo sapiens) (UniProt P14416)
Assay: HTS Assay for Allosteric Antagonists of the Human D2 Dopamine Receptor: Primary Screen for Antagonists; further: 0% is about no effect
Conditions: HEK293 TREx D2 cells, calcium flux, dopamine EC80; at 10 µM; stronger effect = higher value
In short: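 Measurement of antagonist activity uses fluorescent calcium dye in inducible HEK293 T-REx D2 cells: 10 s baseline, compound addition with 180 s read, EC80 dopamine addition with a further 180 s read.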

Chain of UniProt P14416 (P14416 whole entry, looked up): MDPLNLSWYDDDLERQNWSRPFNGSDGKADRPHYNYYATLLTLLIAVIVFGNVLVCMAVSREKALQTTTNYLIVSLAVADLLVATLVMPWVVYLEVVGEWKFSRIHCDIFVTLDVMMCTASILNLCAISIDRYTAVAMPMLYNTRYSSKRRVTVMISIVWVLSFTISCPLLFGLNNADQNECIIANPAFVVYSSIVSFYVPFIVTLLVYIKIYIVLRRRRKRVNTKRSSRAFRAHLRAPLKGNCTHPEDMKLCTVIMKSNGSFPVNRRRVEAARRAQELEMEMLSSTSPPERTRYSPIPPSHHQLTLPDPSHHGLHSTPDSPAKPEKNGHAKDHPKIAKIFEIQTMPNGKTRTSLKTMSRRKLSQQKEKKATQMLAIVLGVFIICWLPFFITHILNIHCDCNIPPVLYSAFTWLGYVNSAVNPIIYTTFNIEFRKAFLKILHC

SMILES | inhibition
COC(=O)c1sccc1S(=O)(=O)N(CC(=O)Nc1cccc(C)c1C)c1ccc(C)c(C)c1 | -4.7%
CN(C)c1ccc(-c2nnc(SCC3CCCO3)n2C)cc1 (stereo unspecified) | active: 31.6%
CCc1ccc(-c2cn3nc(CC)sc3n2)cc1 | -2.17%
Cc1ccc(C(C)C)c(OCC(=O)Nc2ccc(S(=O)(=O)Nc3onc(C)c3C)cc2)c1 | 0.352%
N#Cc1ccc(CN2C(=O)c3ccccc3Sc3ccc(C(=O)OCc4ccco4)cc32)cc1 | 17.3%
C/C=C/C(=O)OCC(=O)Nc1ccccc1Br | active: 46.7%
Cc1ccc(C2c3c(oc4ccccc4c3=O)C(=O)N2c2ccc(C)cn2)cc1 (stereo unspecified) | -5.33%
Cn1c(=NC(=O)c2ccc3c(c2)OCCO3)sc2cc(S(C)(=O)=O)ccc21 | -4.4%
COc1ccccc1CNC(=O)C(CC(C)C)NS(=O)(=O)c1ccc2c(c1)oc(=O)n2C (stereo unspecified) | -21.2%
CCC(=O)N1CCc2cc(S(=O)(=O)NCCC(=O)NCc3ccccc3Cl)ccc21 | -2.32%
Cc1ccccc1-c1noc(C(C)NC(=O)c2ccco2)n1 (stereo unspecified) | -11.5%
CCOC(=O)c1ccc(NC(=O)C2CCCN(c3ccc(Sc4ccc(C)cc4)nn3)C2)cc1 (stereo unspecified) | -28.1%
CCN(C(=O)CN(C)S(=O)(=O)c1ccc2c(c1)c(=O)n(C)c(=O)n2C)c1ccc(OC)cc1 | -1.89%
COC(=O)c1ccc(-n2nnc(-c3nc(-c4ccc5c(c4)OCO5)no3)c2C)cc1 | 4.9%
CC(=O)NCCNc1nc2c(S(=O)(=O)c3ccc(C)c(C)c3)nnn2c2ccc(Cl)cc12 | -2.08%
Cc1cc(Br)ccc1NC(=O)CCS(=O)(=O)c1cccc2nsnc12 | -0.719%
O=C(NCc1ccccc1)c1ccc(NC(=O)c2nsc3ccccc23)cc1 | 18.6%
CCOC(=O)/C=C/C(=O)Nc1ccc(S(=O)(=O)N2CCCCCC2)cc1 | active: 31.3%
COc1ccc(CNC(=O)CCC(=O)N2CC3CCCN3c3ccccc32)cc1 (stereo unspecified) | 0.116%
O=C1C2CCCN2C(c2cccc(Br)c2)N1c1ccc(F)cc1 (stereo unspecified) | active: 37.7%
COC(=O)/C(=C/c1ccccc1)NC(=O)c1ccco1 | active: 38.6%
CC(=O)N1CCCc2cc(S(=O)(=O)N3CCC(C(=O)NCc4ccc(N(C)C)cc4)CC3)ccc21 | 11.9%
COc1cc(CN(CC2CCCO2)C(=O)c2ccc(F)cc2)cc(OC)c1OC (stereo unspecified) | -4.17%
CCCNC(=O)c1ccc(-n2c(-c3ccccc3)cc3c2CCCCC3)cc1 | -18.1%

SMILES | inhibition
CCOc1cccc(CC(=O)Nc2ccc3nc(N4CCCCC4)cc(C)c3c2)c1OCC | -12.8%
Cc1ccc(NC(=O)Nc2nnc(N3CCCC3)s2)c(C)c1 | -8.29%
C=CC(C)(C)c1[nH]cnc1/C=C1\NC(=O)C(C(C)C)NC1=O (stereo unspecified) | active: 76.1%
COc1ccc(-c2cn3nc(N4CCC(C(=O)Nc5cccc(Cl)c5)CC4)sc3n2)cc1 | -5.93%
Cc1ccc(CNC(=O)Cc2coc3cc(C)cc(C)c23)cc1 | 12.8%
Cc1cccc(N2CCN(C(=O)CSCc3ccc(F)cc3)CC2)c1C | 0.0083%
CCCCN(C)C(=O)C1CCCN(c2ncnc3onc(-c4ccc(F)cc4)c23)C1 (stereo unspecified) | -1.5%
CCN(CC)S(=O)(=O)c1ccc2c(c1)c(=O)c(C(=O)NCc1ccccc1)cn2C | 14.2%
Cc1ccc(Cl)c2sc(NC(=O)CS(=O)(=O)c3ccc(Cl)cc3)nc12 | -20.7%
CCOc1ccc(CNS(=O)(=O)c2c(C(=O)N3CCCCCC3)c(C)n(C)c2C)cc1OC | -9.33%
Cc1ccc(-c2c(C(=O)Nc3ccc(F)c(F)c3)oc(=O)c3ccccc23)cc1 | -9.7%
O=C(NCCSCc1ccc(Cl)cc1)C1CCN(S(=O)(=O)Cc2ccccc2)CC1 | -7.41%
O=C(CN1C(=O)C2CCCCN2c2ccc(C(=O)N3CCCC3)cc21)NCc1cccc(Cl)c1 (stereo unspecified) | -7.66%
CN(C)c1ccc(CNC(=O)c2cc3cc(S(=O)(=O)N4CCCCC4)ccc3n2C)cc1 | -13.8%
COc1ccc(S(=O)(=O)N2CCN(c3ccccc3OC)CC2)cc1-c1noc(C)n1 | 13.5%
Cc1ccc(-c2nc3ccccc3n3c(-c4ccccc4)c4c(=O)n(C)c(=O)n(C)c4c23)cc1 | -6.67%
Cc1ccc(Cn2c(-c3ccccc3)nc3ccccc32)cc1 | 2.21%
COc1cc(/C=C(\C#N)c2nc3ccccc3c(=O)[nH]2)cc(OC)c1OC | -5.22%
COc1cc(OC)c(NC(=O)c2cc(CN3CCOCC3)on2)cc1Cl | 3.65%
CCn1ccc2cc(S(=O)(=O)N3CCC(C(=O)NCc4cccc(C)c4)CC3)ccc21 | 3.54%
Cc1cccc(N(C(=O)c2sc(C)nc2C)C(C(=O)NCc2ccco2)c2ccccc2)c1 (stereo unspecified) | active: 45.5%
Cc1ccc(C)c(Cn2c(=O)n(CCCCC(=O)NCc3ccccc3Cl)c(=O)c3ccccc32)c1 | 12.3%
OCC1(Cc2ccccc2)CCCN(Cc2ccc(-c3ccco3)cc2)C1 (stereo unspecified) | active: 54.2%
CCOc1ccccc1NC(=O)Cn1ccn(-c2ccccc2)c(=O)c1=O | -5.96%

SMILES | inhibition
CCCCNC(=O)c1cc(Sc2ccc(OCC)cc2)nc2ccccc12 | -8.81%
CCOc1cccc(C2c3c(oc4ccc(F)cc4c3=O)C(=O)N2CCc2ccc(OC)cc2)c1 (stereo unspecified) | 8.75%
COc1ccc(NC(=O)c2nnn(Cc3nc(-c4cc(Br)ccc4OC)oc3C)c2C)cc1 | 10.3%
Cc1ccc(CN(C(=O)Nc2cccc(Cl)c2)c2ccccn2)cc1 | -18.9%
CCNC(=O)Cn1c(-c2cccs2)cc2ccccc21 | -6.32%
COc1ccc(Nc2cc(C(=O)NC3CCCC3)c3ccccc3n2)c(OC)c1 | -12%
O=C(N/N=C/c1cc2c(cc1Br)OCO2)c1cc2ccccc2o1 | active: 79.9%
COc1cccc(/C=C/C(=O)Nc2ccc(C(=O)Nc3cccc(S(N)(=O)=O)c3)cc2)c1OC | active: 77.1%
COc1ccc(NC(=O)C2CCN(S(=O)(=O)c3ccc4c(c3)CCCC(=O)N4)CC2)cc1Cl | 6.24%
CCN(CC)C1=CC2=CC(=C(C#N)C#N)CCC2CC1 (stereo unspecified) | active: 75.6%
O=C(CSc1nc(=O)[nH]c2c1CCCC2)Nc1ccccc1C(F)(F)F | 5.29%
CCOC(=O)C1CCN(CCC(=O)Nc2ccc(Br)c(C)c2)CC1 | 18.9%
Cc1ccc(NC(=O)C(NS(=O)(=O)c2ccc3c(c2)CCC(=O)N3)c2ccccc2)cc1C (stereo unspecified) | -13.5%
CCOc1ccc(CNC(=O)c2ccc(-c3nc(CS(=O)(=O)c4ccccc4)c(C)o3)cc2)cc1 | -24.2%
Cc1nn2c(=O)cc(COC(=O)c3ccc(NC(=O)C4CCCCC4)cc3)nc2s1 | -1.08%
Cc1ccc(NC(=O)Cn2c(=O)n(CCCCC(=O)NCCc3ccccc3)c(=O)c3ccccc32)c(C)c1 | 17.1%
O=C(Nc1ccc(F)cc1F)c1cc(-c2ccccc2O)no1 | 14%
COc1cc(NC(=O)Cn2nc(C(F)(F)F)c3c2CCCC3)c(OC)cc1Cl | -2.72%
CCCCOC(=O)c1ccc(NC(=O)c2cc3c(=O)n4cccc(C)c4nc3n2C)cc1 | 9.52%
COCCNC(=O)CCCn1c(=O)c2cc(OC)c(OC)cc2n(CC(=O)Nc2ccc(F)cc2)c1=O | 5.44%
O=C(NCC(c1ccc(F)cc1)N1CCOCC1)c1nn(-c2ccccc2)c(=O)c2ccccc12 (stereo unspecified) | active: 69.8%
Cc1ccc(CNS(=O)(=O)c2ccc3c(c2)CCN3S(C)(=O)=O)cc1 | 4.11%
COc1ccc(-c2cn3nc(N4CCC(C(=O)Nc5cccc(C)c5C)CC4)sc3n2)cc1 | 8.21%
COc1ccc(N(CC(=O)N2CCN(c3cccc(C)c3C)CC2)S(=O)(=O)c2c(C)noc2C)cc1 | -13%

SMILES | inhibition
COc1ccc2nc(N(Cc3cccnc3)C(=O)c3ccc4c(c3)OCCO4)sc2c1 | -2.72%
CCCSc1ncc(Cl)c(C(=O)Nc2sc3c(c2C(=O)NCCOC)CCCC3)n1 | 3.77%
Cc1c(Cl)cccc1NC(=O)CSc1nc(=O)n(Cc2ccccn2)c2c1CCC2 | 9.89%
CC1Cc2ccccc2N1C(=O)C12CCC(C)(C(=O)C1)C2(C)C (stereo unspecified) | active: 32%
CCOC(=O)CSc1nc(C)nc2c1sc1nc(C)c(C(C)=O)c(-c3ccc(OC)cc3)c12 | active: 39.6%
Cc1ccc2occ(CN3CCN(c4ccccc4)CC3)c(=O)c2c1 | active: 67.4%
Cc1nn2c(=O)cc(COC(=O)c3cccc(NC(=O)c4cccs4)c3)nc2s1 | -0.102%
Cc1cccc(N(C)S(=O)(=O)c2cc3c(cc2Cl)NC(=O)CO3)c1 | -2.28%
CCOc1ccc(NS(=O)(=O)c2ccc3[nH]c4c(c3c2)CCCC4)cc1 | 1.72%
COCCn1c(=O)[nH]c2cc(C(=O)NCCN3CCN(c4cccc(Cl)c4)CC3)ccc2c1=O | active: 87.3%
CCn1c(SCCOc2ccccc2F)nc2ccccc21 | -11.9%
CCOc1ccccc1C(=O)Nc1ccc2c(c1)N(C)C(=O)c1ccccc1S2 | 21.1%
CCN(CC(=O)Nc1cc(Cl)ccc1C)C(=O)COc1ccccc1F | active: 39.9%
Cc1nn(-c2ccc(N3CCOCC3)nn2)c(C)c1CCC(=O)NCc1ccc(OC(C)C)cc1 | 11.7%
Cc1c(C2=CCN(S(=O)(=O)c3ccc(CC(C)C)cc3)CC2)c2ccccc2n1CC(=O)N1CCCC1 | -2.02%
COc1ccc(C(=O)N(Cc2ccc(C(C)C)cc2)C2CCS(=O)(=O)C2)cc1 (stereo unspecified) | 5.49%
Cc1nc2nc(SCC(=O)NCCc3ccccc3)nn2c(C)c1Cc1c(F)cccc1Cl | 3.22%
Cc1ccccc1CNS(=O)(=O)c1csc(C(N)=O)c1 | 1.9%
Cc1ccc(C(C)C)c(OCC(=O)N2CCC(c3nc4ccccc4o3)CC2)c1 | 3.76%
Nc1c(C(=O)c2ccc(Br)s2)oc2ccccc12 | active: 44.8%
O=C(CCN1C(=O)COc2ccccc21)NCCN1CCN(c2ccccc2F)CC1 | active: 44.7%
COc1ccccc1CNC(=O)C1CCCN(c2nnc(-n3c(C)ccc3C)s2)C1 (stereo unspecified) | -0.813%
CC1=C(C(=O)OCC2CCCCC2)C(c2ccccc2F)CC(=O)N1 (stereo unspecified) | 15.1%
Cc1ccc(C)c(NC(=O)CN2C(=O)COc3ccc(Cl)cc32)c1 | 0.495%
